The results in this text go back to the antibiotic and cytotoxicity screens of Wong et al. (2023).

The list shows a part of the results.

The test system of the assay is S. aureus RN4220. Briefly: growth inhibition call (relative growth <= 0.2). The note with it: 50 µM.
Turning to `Cc1noc(C)c1S(=O)(=O)N(C)C[C@H]1Oc2ccc(NS(=O)(=O)c3ccccc3)cc2CC(=O)N([C@H](C)CO)C[C@H]1C`, the growth inhibition call was “inactive”.

In the case of `COc1ccc2c3c(n(c2c1)C)[C@H](CO)N(C[C@]13CN(C1)S(=O)(=O)c1ccc(cc1)C)S(=O)(=O)c1ccc(cc1)C`, the growth inhibition call is “inactive”.

On to `C[C@@H]1CCCCO[C@@H](CN(C)C)[C@@H](C)CN([C@H](C)CO)C(=O)c2cc(NC(=O)CCCN(C)C)ccc2O1`, for which the growth inhibition call is “inactive”.

Take `Cc1cccc(S(=O)(=O)N2C[C@@H](O)COC[C@@H]3O[C@H](CC(=O)NCCCN4CCOCC4)CC[C@H]32)c1`: the growth inhibition call was “inactive”.

Take `C[C@@H]1CN([C@@H](C)CO)C(=O)Cc2cc(NS(=O)(=O)c3ccc(F)cc3)ccc2O[C@H]1CN(C)S(=O)(=O)c1ccccc1`: the growth inhibition call is “inactive”.

Consider `CC1(C)[C@H]2CC[C@@]1(C(=O)O)C(=O)C2=O`, for which the growth inhibition call is “inactive”.

With `C[C@H]1CCCCO[C@H](CN(C)Cc2ccc(C(=O)O)cc2)[C@@H](C)CN([C@@H](C)CO)C(=O)c2cc(NS(=O)(=O)c3cccs3)ccc2O1`, the growth inhibition call is “inactive”.

With `COC(=O)c1c2oc(c1C(=O)OC)C(=O)N[C@@H](Cc1ccccc1)Cn1cc(nn1)[C@H](Cc1ccccc1)NC(=O)N[C@@H](COC(=O)NCCCCCC(=O)NO)CC2`, the growth inhibition call is “inactive”.

On to `COCC#Cc1cnc2c(c1)C(=O)N([C@@H](C)CO)C[C@H](C)[C@H](CN(C)C(=O)Nc1ccccc1OC)O2`, for which the growth inhibition call is “inactive”.

With `O=C(C[C@@H]1C[C@@H]2c3cc(NC(=O)C4CCOCC4)ccc3O[C@@H]2[C@@H](CO)O1)NCCN1CCCCC1`, the growth inhibition call was “inactive”.

Turning to `COC(=O)c1ccc([C@H](c2c(N)n(CC(C)C)c(=O)[nH]c2=O)N2CCOCC2)cc1`, the growth inhibition call was “inactive”.

For the molecule `COc1ccc(NC(=O)N(C)C[C@@H]2Oc3c(NC(=O)C4CC4)cccc3C(=O)N([C@@H](C)CO)C[C@H]2C)cc1`, the growth inhibition call is “inactive”.

On to `COc1cc(CN)cc(OC)c1OC`, for which the growth inhibition call was “inactive”.

Turning to `C[C@@H]1CCCCO[C@@H](CN(C)C(=O)Nc2ccc(F)cc2)[C@H](C)CN([C@H](C)CO)C(=O)c2cc(NS(=O)(=O)c3ccc(Cl)cc3)ccc2O1`, the growth inhibition call is “inactive”.

As to `C[C@@H]1CCCCO[C@@H](CN(C)C(=O)Cc2ccccc2)[C@@H](C)CN([C@H](C)CO)C(=O)c2cc(NC(=O)Nc3ccc(C(F)(F)F)cc3)ccc2O1`, the growth inhibition call was “inactive”.

Take `C[C@H](CO)N1C[C@H](C)[C@@H](CN(C)C(=O)Cc2ccncc2)Oc2cc(C#Cc3ccccc3F)ccc2S1(=O)=O`: the growth inhibition call is “inactive”.

Take `CCCCCCNC(=O)n1cc(F)c(=O)[nH]c1=O`: the growth inhibition call is “inactive”.

`C[C@@H]1CN([C@@H](C)CO)C(=O)c2cc(NC(=O)Nc3ccccc3)ccc2O[C@@H](C)CCCCO[C@@H]1CN(C)Cc1ccc2c(c1)OCO2`: the growth inhibition call is “inactive”.

For `O=C(C[C@H]1C[C@H]2c3cc(NS(=O)(=O)c4ccc(F)cc4)ccc3O[C@H]2[C@H](CO)O1)NCc1ccccn1`, the growth inhibition call was “inactive”.

`C[C@H]1CN([C@@H](C)CO)S(=O)(=O)c2ccc(C3=CCCC3)cc2O[C@@H]1CN(C)C(=O)c1cnccn1`: the growth inhibition call is “inactive”.

`CO[C@@H]1CN(C)C(=O)c2ccc(NS(C)(=O)=O)cc2OC[C@@H](C)N(C(=O)CN(C)C)C[C@@H]1C`: the growth inhibition call was “inactive”.

Consider `COc1ccc([Si](C)(C)[C@H]2[C@H](CCO)O[C@@]3(C(=O)N(Cc4ccccc4)c4ccc(N5C(=O)COc6ccccc65)cc43)[C@@H]2C)cc1`, for which the growth inhibition call was “inactive”.

Turning to `Cc1noc(C)c1S(=O)(=O)N(C)C[C@H]1Oc2ccc(N(C)C)cc2CC(=O)N([C@@H](C)CO)C[C@@H]1C`, the growth inhibition call is “inactive”.

On to `Cc1ccc(S(=O)(=O)Nc2ccc3c(c2)C(=O)N([C@@H](C)CO)C[C@H](C)[C@H](CN(C)S(=O)(=O)c2ccc(F)cc2)OCCCC[C@@H](C)O3)cc1`, for which the growth inhibition call was “inactive”.

For the molecule `NC(=O)c1cc(S(=O)(=O)N2CCOCC2)ccc1F`, the growth inhibition call was “inactive”.

Turning to `C=CCN1C(=O)[C@]2(O[C@H](CCn3cc([C@H](O)c4ccccc4)nn3)[C@@H]([Si](C)(C)c3ccc(OC)cc3)[C@@H]2C)c2cc(N3CCOC3=O)ccc21`, the growth inhibition call was “inactive”.

Turning to `C[C@@H]1CCCCO[C@@H](CN(C)C(=O)Nc2ccc3c(c2)OCO3)[C@@H](C)CN([C@H](C)CO)C(=O)c2cc(NC(=O)Nc3ccccc3)ccc2O1`, the growth inhibition call was “inactive”.
